This is one part of the list. At the low end of the ranking the order means little. Measured with an extract: partners may take part in the binding.

This experiment addresses T1, HNF4alpha8 (COS-7 nuclear extract) (UniProt P41235-5).
T1 sequence: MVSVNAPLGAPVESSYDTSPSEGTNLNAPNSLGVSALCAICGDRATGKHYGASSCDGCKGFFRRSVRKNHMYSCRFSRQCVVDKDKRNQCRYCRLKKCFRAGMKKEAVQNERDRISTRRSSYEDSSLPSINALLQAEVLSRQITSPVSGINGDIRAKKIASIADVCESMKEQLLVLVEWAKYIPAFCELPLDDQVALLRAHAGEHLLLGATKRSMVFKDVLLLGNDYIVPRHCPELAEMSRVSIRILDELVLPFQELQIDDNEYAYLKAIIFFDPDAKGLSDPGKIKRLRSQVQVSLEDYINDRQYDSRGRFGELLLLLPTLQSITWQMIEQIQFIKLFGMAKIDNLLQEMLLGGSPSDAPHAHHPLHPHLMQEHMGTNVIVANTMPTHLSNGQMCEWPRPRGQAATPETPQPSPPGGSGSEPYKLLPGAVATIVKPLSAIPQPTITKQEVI
As to the kind of experiment: protein-binding microarray. The settings on record: COS-7 nuclear extract on double-stranded Agilent 4x180k PBM; binding buffer, salt, pH and temperature not given; high values mean tight binding; double strand, one strand shown; sequences stand for … in …GCCTAGGGAGATTAGAGTATCGGTCGA
On to GTCTATCCTTATTTATCTTCCAGCGGGTGC, for which the binding signal (log2 normalized intensity) is 2.1.
In the case of AGGGTGAAGTTTGGCAATTACCCAACAGAC it was -1.19; in that of GGACTTTGAAGCTCCAAGATAGGAATGTAC, 2.77.
For the sequence ACCAAAAAGGCTAACTTACCCGCTTAAGAG, the binding signal (log2 normalized intensity) is -1.34.
Under TGAATATTTGCTTTCCAGTTCTTTGATAGC stands 0.316.
Under TCCATTCCGCGAGGGTCCCCACCTTCCATT stands 1.08.
In the case of GGGCAAAGGAATAAAATAGCTGCCTGTGTG it was -1.39.
As to GCGTAGCCCAAAGGTCAGTCTGCAGCTAAT, the binding signal (log2 normalized intensity) is 3.36.
As to ACTTACATCCTCAGGTAAAGATCAACCATC, the binding signal (log2 normalized intensity) was determined as 0.47.
In the case of TTTCCTAAATATGTTCCAAAGTTCAACCAG it was 5.14; in that of ACTTTGGCCGTGAAGCCGTCCTGTCCTGGA, 0.978; in that of CTGTGTATACAAAGATCAGTGTACTTAAAA, 1.16.
Consider GGCTTAGCAGCTTGAGGCTCCGATAAACCC, for which the binding signal (log2 normalized intensity) was -1.14.
In the case of AACACAAAAAGCCTGAGCATCTTATCAGCA it was -1.4; in that of ACTTGTTCCGGATAGCCAAATAGCCTGGTC, -0.0286.
As for GATAGCAAGGAGACATCGCTCCTCCCTTCT, the binding signal (log2 normalized intensity) is -1.38.
Under ACTGCTCCACCAGCGCGTGCCTTCCCTGCA stands -1.26; under AGGCAGTCTGTTGACCTTTGGCCAAGGGCA, 8.19; under AAAGTTCTGCTGAGTATCCAAAGGTCAGTG, 6.24.
Turning to GATCTGAACTCAAGCTCTTAAAGAAGCAGT, the binding signal (log2 normalized intensity) was -0.93.
In the case of TAGGGACAGCTAGTCTAGACTTTGCTTTCT it was 3.82.
In the case of GCTTATCTGGGAGGGGGAGGTTTTGTGTCT it was 0.884; in that of GATTTGTAACCTGCAAAGAGCAAACTCCAG, -0.0423.
TGTGCAGAGAGCAAACGAACCGGCAGCCGC: the binding signal (log2 normalized intensity) is -1.22.
In the case of AGTCCAAAGGTCTGAGAACCAAGAGAGCCA it was 1.62; in that of CATACAATTCATGACTCTCTTATAGGTGTT, 0.846; in that of AGAGTTCAAGAAGGGCAGTTGACAGAGGAC, -0.67.
In the case of TGAACCTAGATTCCAGGAAGAAAGATTGAA it was -1.28; in that of TGCTGGCTGGCGGCCTTTGGGTCCCTGGCC, 1.05.
On to GGTGCTGCATGGGCTGAGCCCAGCAAACCT, for which the binding signal (log2 normalized intensity) was -1.35.
Under GCAATGATCTTCATGAACTTCTGTCCACAG stands 0.847; under CATTCCAACACAGGGTCAATGTCCCCTTAG, 3.7; under CACCCCCACGGTGCGCTGCCCCTCACTGCC, 4.8.
In the case of CTGCTTACATTTTGCTCTGTTGTGTCAAAG it was 1.74.
In the case of GAAGGACATAAATGTGCCCAGATAAGAACT it was -1.38.
AACTGGACAAATTCCTGGGAACTGCGGACA: the binding signal (log2 normalized intensity) is -1.32.
Regarding AGGGGTTACTAGTGAGTTGGACTTTGGACC, the binding signal (log2 normalized intensity) was found to be 11.6.
Under GCTGGCCTCATGCCTTATCTACATAGTCCC stands -1.2; under AATAAGGCTGCGACCTGCTGGGCTGCATTC, -1.4.
Under GCCACTCATAGAACTGTCGCAGAAAACACA stands -1.29; under GGTGTAGGGCAGAGGTCAGCCCACAGGTCA, 3.64; under CCTATGGGATCAAAGTGCGACAGGGAGATT, 3.5.
Under GGGTGGGGGTGGGGAGGATAGCAGCCCAGC stands -1.41; under AGTGACTTAATTATCAGAAGAGGAGCGATG, -0.748.
With TTTAATACAAGTATTATCTTCCATTTCTGC, the binding signal (log2 normalized intensity) was -1.15.
In the case of CAGGCACAAGAATGGTCATTCTCTGTTGCA it was -1.25.
In the case of AGGCAAACAGATGAAGTACTGTTCTAAATT it was -0.0831; in that of GGTTTCTTGCTGAAGGTAGGACAGGGTGAT, 1.11; in that of AGACTTTTTTTTTCTTAATTGCCCTTTGCC, 5.04.
Regarding TGGCTGAGATCTGGAATTGGGCCAAGCACA, the binding signal (log2 normalized intensity) was -1.09.
In the case of AGGATAAAGTAAGGTGAAGCCCAGCAGCTC it was -1.17; in that of CTGCAGCATCTGAGCAGATGTAAACATCAT, -1.21.
As to TCTCTGGGGGTCAGAAGTCCAACATTAGTA, the binding signal (log2 normalized intensity) came out at 4.97.
Under GCCCCCGCAGACCCAGTCTTAGGGACTAAG stands 4.04; under TCATGGGAATGAAAGGAGGTCATGTACATG, 1.43.
In the case of TGTTTGTTTTGAGATAGGGTCTTGCTTTGT it was 1.3; in that of TTGAAATCTCAAATAGCTGGGTCTCACTCT, -0.338; in that of AAGTAGAGGAATGCTGGTAAACACTGAGCT, -1.36.
For AGCAGCAAAGTCCTGGAAGAAACCCATTTG, the binding signal (log2 normalized intensity) was -1.32.
Under TACACATCAAAGTATGAGAGCCTGAGAACA stands -1.25; under TCAAAGGGAGATTCCTGACATTCAGTCTTT, 0.158; under TTCAGAGATGATAAGCCCTGAGTAGTTCTT, -1.19.
As to TTCCCTACCCGGCAAAGAATTGTGAGTCCA, the binding signal (log2 normalized intensity) worked out at 1.91.
On to GGAGTATAGGAACATGAACTGAGCAGGCCT, for which the binding signal (log2 normalized intensity) is -1.2.
Under GCATGTCTCTGGTCGGGGAGGTGTTTATCT stands 1.06; under TGTATAATGACACTAGCAGAAGAGACAGTC, -1.34; under CTCTCACTGCAGAAACTCTGCAGTAACTGT, -0.939.
As to CACTCAATGCAGCAGCATTGGACCCTCCCA, the binding signal (log2 normalized intensity) came out at 6.02.
Regarding TTTCATCAGTCCAATTCACAGAACTCCCTA, the binding signal (log2 normalized intensity) was -0.295.
In the case of ACACTCTCAATCTTTGCCCTCTTGGTATCA, the binding signal (log2 normalized intensity) stood at 2.9.
Under AACACTCACTGGGAGAGAAAGCTAATTTAA stands -1.31; under GGGGAGGTCAACCAGGGAAATTACCCTCTA, 0.0161; under AGAGCTCAGATGAACTTTGCCTTAGGCCAT, 4.78.
